# Results reported in PubChem BioAssay AID493208 (National Center for Advancing Translational Sciences (NCATS), 2011).
# The campaign covered roughly 44,000 compounds. About 340 (0.77%) were called active. Inconclusive results (about 5%) are left out. Calls follow the shape of the dose curve; as a rule, active = well fitted inhibition curve with a large enough effect; inconclusive = small, poorly fitted or top-dose-only effect; inactive = flat fitted curve, though single readings scatter. The list shows a part of the results.
# Assay: Acumen qHTS Assay for Inhibitors of the mTORC1 Signaling Pathway in MEF (Tsc2-/-, p53-/-) Cells: Sytravon;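 also: plate controls were DMSO for no effect and rapamycin for full effect; nearly all actives have a fitted effect of over 50% in size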
# Settings: phospho-rpS6 immunofluorescence/PI, 24 h; series mostly up to 38.3 µM; activity change, negative = inhibition: at the top concentration
# Outline: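 Readout is phospho-S6 Alexa 488 signal normalized to PI per well, reported as % active cells with thresholds set from rapamycin (7.5 nM) and DMSO controls. Cells: Tsc2-/-, p53-/- MEFs, 24 hrs compound at 37 C; PI cell number serves as viability.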
row,SMILES,"activity change, negative = inhibition"
1,COc1c(Cl)cc(C(=O)Nc2cccc(-c3nc4ccccc4[nH]3)c2)cc1Cl,inactive: 4.56%
2,CC(=O)c1ccc(NC2=NS(=O)(=O)c3ccccc32)cc1,inactive: -18.8%
3,O=C(NCc1ccc(F)cc1)c1ccc(CSc2nc3ccncc3n2Cc2ccc(F)cc2)cc1,inactive: 2.16%
4,Cc1cc(C)c(Cn2c3ccccc3c3cnn(CC(=O)NCCc4ccccc4)c(=O)c32)c(C)c1,inactive: -6.56%
5,CCc1cccc(C)c1NS(=O)(=O)c1c(C(=O)N2CCCCCC2)c(C)n(C)c1C,inactive: -7.21%
6,Cc1ccc(Cl)cc1N1CCN(C(=O)CN2C(=O)COc3ccc(S(=O)(=O)N4CCOCC4)cc32)CC1,inactive: 0.477%
7,COc1ccc(Cl)cc1NC(=O)Cn1nnc2sc3c(c2c1=O)CCC(C(C)(C)C)C3 (stereo unspecified),inactive: -0.249%
8,CCOC(=O)c1c(Nc2cccc(O)c2)nnc(-c2ccccc2)c1-c1ccccc1,inactive: -1.41%
9,Cc1ccc(NC(=O)Cn2cc(S(=O)(=O)c3ccc(F)cc3)c(=O)c3cc4c(cc32)OCO4)cc1,inactive: -11.8%
10,Cc1ccc(NC(=O)CSc2nccn2C2CCCC2)cc1,inactive: -4.76%
11,O=C(CSc1nc2ccccc2nc1Cc1ccc(F)cc1)Nc1ccc2c(c1)OCO2,inactive: 3.03%
12,COCCNC(=O)Cn1c(=O)n(Cc2ccc(C(=O)NCCc3ccc(OC)c(OC)c3)cc2)c(=O)c2ccccc21,inactive: -25.8%
13,COc1cc(Cl)c(C)cc1NC(=O)CCCN1C(=O)C(c2ccccc2)Oc2cccnc21 (stereo unspecified),inactive: -11%
14,COc1ccc(-n2c3c(c(=O)[nH]c2=O)C(NC(C)=O)(C(F)(F)F)C(=O)N3)cc1 (stereo unspecified),inactive: -22.8%
15,Cc1cccc(Oc2nc3ccccn3c(=O)c2/C=C(\C#N)c2nc3ccccc3s2)c1C,inactive: -9.13%
16,COc1ccc(NC(=O)C2CCCN(S(=O)(=O)c3cn(C)cn3)C2)cc1Cl (stereo unspecified),inactive: 4.69%
17,CCOc1ccccc1C1CC(=O)NC(C)=C1C(=O)OC1CCCCCC1 (stereo unspecified),inactive: -4.54%
18,COc1ccc(CCNC(=O)c2ccc3c(c2)CCN3S(=O)(=O)c2ccc(Cl)cc2)cc1,inactive: -7.04%
19,COc1ccc(OC)c(NC(=O)c2ccc(-c3nc(CSc4ccccc4)c(C)o3)cc2)c1,inactive: -0.507%
20,CC(C)(C)C(=O)Cn1c(=O)n(CCCCCC(=O)NCc2ccc3c(c2)OCO3)c(=O)c2sccc21,inactive: 1.96%
21,COc1ccccc1CCNC(=O)c1ccc(NC(=O)N2CC(C)Sc3ccccc32)cc1 (stereo unspecified),inactive: -8.7%
22,CCCCn1cc(S(=O)(=O)c2ccc(CC)cc2)c(=O)c2cc(F)c(N3CCCC(C)C3)cc21 (stereo unspecified),inactive: -0.606%
23,Cc1ccc(C(=O)CSc2nc3cc(C(=O)NC4CCCC4)ccc3c(=O)n2CC2CCCO2)cc1 (stereo unspecified),inactive: 6.34%

row,SMILES,"activity change, negative = inhibition"
1,CSc1cccc(NS(=O)(=O)c2ccc3[nH]cc(C(=O)N4CCCC4)c(=O)c3c2)c1,inactive: 3.48%
2,Cn1c(=O)n(C)c2cc(N3CCCCC3)c(NC(=O)c3ccc(Cl)cc3)cc21,inactive: -8.05%
3,COc1cc(OC)c(NC(=O)c2c(C)nn(-c3ccc(C)cc3)c2-n2cccc2)cc1Cl,inactive: 1.94%
4,COc1ccc(C(=O)NCCn2cc(SCC(=O)Nc3ccccc3)c3ccccc32)cc1OC,inactive: 4.1%
5,Cc1cc(C)cc(NC(=O)C2CCCN2S(=O)(=O)c2ccc3c(c2)C(C)(C)C(=O)N3C)c1 (stereo unspecified),inactive: -1.14%
6,CCOC(=O)c1ccc(NC(=O)c2ccc3c(c2)c(C)c(C)n3Cc2ccc(F)cc2)cc1,inactive: 0%
7,CCOC(=O)C1(C)C=C(Nc2ccc(OC)cc2)C(=O)N1c1ccccc1 (stereo unspecified),inactive: -16.9%
8,Cc1cc(C)c(Cn2c3ccccc3c3cnn(CC(=O)NC4CCCCCC4)c(=O)c32)c(C)c1,inactive: 0.46%
9,COc1ccc(Cn2cc(C(=O)c3ccc(Cl)cc3)c(=O)c3cc4c(cc32)OCO4)cc1,inactive: -2.64%
10,COC(=O)c1cc2oc3ccccc3c2n1Cc1nc(-c2cccc(Cl)c2)oc1C,inactive: -11.8%
11,CCc1ccc(Nc2nn3c(=O)c4cc5c(cc4nc3s2)OCO5)cc1,inactive: -1.86%
12,O=C(Nc1cccc(Cl)c1Cl)c1cc(S(=O)(=O)N2CCC3(CC2)OCCO3)ccc1F,inactive: 4.58%
13,COc1cc(OC)cc(C(=O)Nc2ccc(S(=O)(=O)N3CCCCC3c3cccnc3)cc2)c1 (stereo unspecified),inactive: -8.3%
14,Cc1ccc(-n2nc3c(N4CCC(C(=O)N5CCC(C)CC5)CC4)nnc(C)c3c2C)cc1,inactive: -6.86%
15,CC(C)Cn1c(=O)c2sccc2n2c(CCCC(=O)NCC(C)c3ccccc3)nnc12 (stereo unspecified),inactive: -0.482%
16,O=C(NCCN1CCN(c2ccccc2F)CC1)C1COc2ccccc2C1 (stereo unspecified),inactive: -1.67%
17,O=C(CSc1oc(-c2ccccc2)nc1S(=O)(=O)c1ccc(Br)cc1)NC1CCCCC1,inactive: -8.55%
18,COc1ccc(OC)c(NC(=O)Cc2c(C(=O)O)[nH]c3ccc(Cl)cc23)c1,inactive: -5.75%
19,CCc1ccccc1NC(=O)Cc1ccc(-n2c(C)nc3cccnc32)cc1,inactive: -6.73%
20,Cc1ccc(C2=Nc3ccccc3N(CC(=O)NCc3ccc(Cl)cc3)C(=O)C2)cc1C,inactive: -12.1%
21,COc1ccc(CNC(=O)c2ccc3c(c2)N(Cc2ccccc2F)C(=O)c2ccccc2S3=O)cc1 (stereo unspecified),inactive: 2.33%
22,CCOc1nc(NC(=O)NS(=O)(=O)Oc2cccc(F)c2)nc(-c2ccccc2)n1,inactive: 10.7%
23,CC(=O)Nc1nonc1-c1nnc(SCc2ccccc2C)n1C,inactive: 0.351%
